# Laboratory results from the supplement of paper PMC8728848.
# Some of the results follow.
# B1: NPA (Narcissus pseudonarcissus), C0HM45 (protein)
# chain: DNILYSGETLSPGEFLNNGRYVFIMQEDCNLVLYDVDKPIWATNTGGLDRRCHLSMQSDGNLVVYSPRNNPIWASNTGGENGNYVCVLQKDRNVVIYGTARWATGTNIH
# Tests used:
# Test in all cases: glycan array binding signal (z-score within array); higher = stronger binding
# Details in all cases: glycan notation: IUPAC condensed, linker removed
# [1] = target: Gal(a1-3)Gal(b1-3)[Fuc(a1-4)]GlcNAc(b1-2)Man(a1-3)[Gal(a1-3)Gal(b1-3)[Fuc(a1-4)]GlcNAc(b1-2)Man(a1-6)]Man(b1-4)GlcNAc(b1-4)GlcNAc
# Summary of the method: (§1)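 Arrays were curated from the Consortium for Functional Glycomics database, 3228 in total, and kept only where the protein sequence was available. Binding is expressed as a within-array Z-score. This score was averaged across arrays of the same protein sequence at different concentrations or buffers and across linkers, and negative values can be read as non-binding.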
# [2] = target: Gal(a1-3)Gal(b1-4)Glc
# Summary of the method: as §1
# [3] = target: Gal(a1-3)Gal(b1-4)GlcNAc
# Summary of the method: as §1
# [4] = target: Gal(a1-3)Gal(b1-4)GlcNAc(b1-2)Man
# Summary of the method: as §1
# [5] = target: Gal(a1-3)Gal(b1-4)GlcNAc(b1-2)Man(a1-3)[Gal(a1-3)Gal(b1-4)GlcNAc(b1-2)Man(a1-6)]Man(b1-4)GlcNAc(b1-4)GlcNAc
# Summary of the method: as §1
# [6] = target: Gal(a1-3)Gal(b1-4)GlcNAc(b1-3)GalNAc
# Summary of the method: as §1
# [7] = target: Gal(a1-3)Gal(b1-4)GlcNAc(b1-6)GalNAc
# Summary of the method: as §1
# [8] = target: Gal(a1-3)Gal(b1-4)[Fuc(a1-3)]GlcNAc
# Summary of the method: as §1
# [9] = target: Gal(a1-3)Gal(b1-4)[Fuc(a1-3)]GlcNAc(b1-2)Man(a1-3)[Gal(a1-3)Gal(b1-4)[Fuc(a1-3)]GlcNAc(b1-2)Man(a1-6)]Man(b1-4)GlcNAc(b1-4)GlcNAc
# Summary of the method: as §1
# [10] = target: Gal(a1-3)GalNAc
# Summary of the method: as §1
# [11] = target: Gal(a1-3)[Gal(a1-4)]Gal(b1-4)GlcNAc
# Summary of the method: as §1
# [12] = target: Gal(a1-4)Gal(b1-3)GlcNAc(b1-2)Man(a1-3)[Gal(a1-4)Gal(b1-3)GlcNAc(b1-2)Man(a1-6)]Man(b1-4)GlcNAc(b1-4)GlcNAc
# Summary of the method: as §1
# [13] = target: Gal(a1-4)Gal(b1-4)Glc
# Summary of the method: as §1
# [14] = target: Gal(a1-4)Gal(b1-4)GlcNAc
# Summary of the method: as §1
# [15] = target: Gal(a1-4)Gal(b1-4)GlcNAc(b1-2)Man(a1-3)[Gal(a1-4)Gal(b1-4)GlcNAc(b1-2)Man(a1-6)]Man(b1-4)GlcNAc(b1-4)GlcNAc
# Summary of the method: as §1
# [16] = target: Gal(a1-4)Gal(b1-4)GlcNAc(b1-3)Gal(b1-4)Glc
# Summary of the method: as §1
# [17] = target: Gal(a1-4)GlcNAc
# Summary of the method: as §1
# [18] = target: Gal(a1-6)Glc
# Summary of the method: as §1
# [19] = target: Gal(b1-2)Gal
# Summary of the method: as §1
# [20] = target: Gal(b1-3)Gal
# Summary of the method: as §1
# [21] = target: Gal(b1-3)Gal(b1-4)GlcNAc
# Summary of the method: as §1
# [22] = target: Gal(b1-3)GalNAc
# Summary of the method: as §1
# [23] = target: Gal(b1-3)GalNAc(a1-3)[Fuc(a1-2)]Gal(b1-4)Glc
# Summary of the method: as §1
# [24] = target: Gal(b1-3)GalNAc(a1-3)[Fuc(a1-2)]Gal(b1-4)GlcNAc
# Summary of the method: as §1
# [25] = target: Gal(b1-3)GalNAc(b1-3)Gal
# Summary of the method: as §1
# [26] = target: Gal(b1-3)GalNAc(b1-3)Gal(a1-4)Gal(b1-4)Glc
# Summary of the method: as §1
# [27] = target: Gal(b1-3)GalNAc(b1-4)Gal(b1-4)Glc
# Summary of the method: as §1
# [28] = target: Gal(b1-3)GalNAc(b1-4)[Neu5Ac(a2-3)]Gal(b1-4)Glc
# Summary of the method: as §1
# [29] = target: Gal(b1-3)GlcNAc
# Summary of the method: as §1
# [30] = target: Gal(b1-3)GlcNAc(a1-3)Gal(b1-4)GlcNAc
# Summary of the method: as §1
# [31] = target: Gal(b1-3)GlcNAc(a1-6)Gal(b1-4)GlcNAc
# Summary of the method: as §1
# [32] = target: Gal(b1-3)GlcNAc(b1-2)Man
# Summary of the method: as §1
# [33] = target: Gal(b1-3)GlcNAc(b1-2)Man(a1-3)[Gal(b1-3)GlcNAc(b1-2)Man(a1-6)]Man(b1-4)GlcNAc(b1-4)GlcNAc
# Summary of the method: as §1
# [34] = target: Gal(b1-3)GlcNAc(b1-2)Man(a1-3)[Gal(b1-3)GlcNAc(b1-2)Man(a1-6)]Man(b1-4)GlcNAc(b1-4)[Fuc(a1-6)]GlcNAc
# Summary of the method: as §1
# [35] = target: Gal(b1-3)GlcNAc(b1-2)Man(a1-3)[GlcNAc(b1-4)][Gal(b1-3)GlcNAc(b1-2)Man(a1-6)]Man(b1-4)GlcNAc(b1-4)GlcNAc
# Summary of the method: as §1
# [36] = target: Gal(b1-3)GlcNAc(b1-2)[Gal(b1-3)GlcNAc(b1-6)]Man(a1-6)[Gal(b1-3)GlcNAc(b1-2)Man(a1-3)]Man(b1-4)GlcNAc(b1-4)GlcNAc
# Summary of the method: as §1
# [37] = target: Gal(b1-3)GlcNAc(b1-3)Gal(b1-3)GlcNAc
# Summary of the method: as §1
# [38] = target: Gal(b1-3)GlcNAc(b1-3)Gal(b1-4)Glc
# Summary of the method: as §1
# [39] = target: Gal(b1-3)GlcNAc(b1-3)Gal(b1-4)GlcNAc
# Summary of the method: as §1
# [40] = target: Gal(b1-3)GlcNAc(b1-3)Gal(b1-4)GlcNAc(b1-2)Man(a1-3)[Gal(b1-3)GlcNAc(b1-3)Gal(b1-4)GlcNAc(b1-2)Man(a1-6)]Man(b1-4)GlcNAc(b1-4)GlcNAc
# Summary of the method: as §1
# [41] = target: Gal(b1-3)GlcNAc(b1-3)Gal(b1-4)GlcNAc(b1-2)[Gal(b1-3)GlcNAc(b1-3)Gal(b1-4)GlcNAc(b1-6)]Man(a1-6)[Gal(b1-3)GlcNAc(b1-3)Gal(b1-4)GlcNAc(b1-2)Man(a1-3)]Man(b1-4)GlcNAc(b1-4)[Fuc(a1-6)]GlcNAc
# Summary of the method: as §1
# [42] = target: Gal(b1-3)GlcNAc(b1-3)Gal(b1-4)GlcNAc(b1-3)Gal(b1-4)GlcNAc(b1-2)[Gal(b1-3)GlcNAc(b1-3)Gal(b1-4)GlcNAc(b1-3)Gal(b1-4)GlcNAc(b1-6)]Man(a1-6)[Gal(b1-3)GlcNAc(b1-3)Gal(b1-4)GlcNAc(b1-3)Gal(b1-4)GlcNAc(b1-2)Man(a1-3)]Man(b1-4)GlcNAc(b1-4)[Fuc(a1-6)]GlcNAc
# Summary of the method: as §1
# [43] = target: Gal(b1-3)GlcNAc(b1-3)Gal(b1-4)GlcNAc(b1-6)[Gal(b1-3)GlcNAc(b1-3)]Gal(b1-4)Glc
# Summary of the method: as §1
# [44] = target: Gal(b1-3)GlcNAc(b1-3)Gal(b1-4)[Fuc(a1-3)]GlcNAc
# Summary of the method: as §1
# [45] = target: Gal(b1-3)GlcNAc(b1-3)Gal(b1-4)[Fuc(a1-3)]GlcNAc(b1-6)[Gal(b1-3)GlcNAc(b1-3)]Gal(b1-4)Glc
# Summary of the method: as §1
binder,measurement,setting,value
B1,glycan array binding signal (z-score),[1],0.645
same,glycan array binding signal (z-score),[2],-0.147
same,glycan array binding signal (z-score),[3],-0.158
same,glycan array binding signal (z-score),[4],-0.135
same,glycan array binding signal (z-score),[5],2.1
same,glycan array binding signal (z-score),[6],-0.141
same,glycan array binding signal (z-score),[7],-0.134
same,glycan array binding signal (z-score),[8],-0.149
same,glycan array binding signal (z-score),[9],-0.056
same,glycan array binding signal (z-score),[10],-0.132
same,glycan array binding signal (z-score),[11],-0.138
same,glycan array binding signal (z-score),[12],0.166
same,glycan array binding signal (z-score),[13],-0.141
same,glycan array binding signal (z-score),[14],-0.15
same,glycan array binding signal (z-score),[15],0.223
same,glycan array binding signal (z-score),[16],-0.145
same,glycan array binding signal (z-score),[17],-0.152
same,glycan array binding signal (z-score),[18],-0.147
same,glycan array binding signal (z-score),[19],-0.127
same,glycan array binding signal (z-score),[20],-0.156
same,glycan array binding signal (z-score),[21],-0.133
same,glycan array binding signal (z-score),[22],-0.148
same,glycan array binding signal (z-score),[23],-0.14
same,glycan array binding signal (z-score),[24],-0.146
same,glycan array binding signal (z-score),[25],-0.144
same,glycan array binding signal (z-score),[26],-0.135
same,glycan array binding signal (z-score),[27],-0.142
same,glycan array binding signal (z-score),[28],-0.15
same,glycan array binding signal (z-score),[29],-0.149
same,glycan array binding signal (z-score),[30],-0.157
same,glycan array binding signal (z-score),[31],-0.155
same,glycan array binding signal (z-score),[32],-0.121
same,glycan array binding signal (z-score),[33],0.278
same,glycan array binding signal (z-score),[34],-0.108
same,glycan array binding signal (z-score),[35],0.233
same,glycan array binding signal (z-score),[36],0.134
same,glycan array binding signal (z-score),[37],-0.148
same,glycan array binding signal (z-score),[38],-0.155
same,glycan array binding signal (z-score),[39],-0.157
same,glycan array binding signal (z-score),[40],0.082
same,glycan array binding signal (z-score),[41],1.12
same,glycan array binding signal (z-score),[42],1.17
same,glycan array binding signal (z-score),[43],-0.151
same,glycan array binding signal (z-score),[44],-0.133
same,glycan array binding signal (z-score),[45],-0.142
